Test results from article PMC5828198, “The relationship of NM23 (NME) metastasis suppressor histidine phosphorylation to its nucleoside diphosphate kinase, histidine protein kinase and motility suppression activities” (Oncotarget, 2017).

Target: the molecule itself
Experiment: native gel or EMSA; Blue native PAGE (NativePAGE Novex 4-16% Bis-Tris); 8 ug recombinant protein mixed with or without ATP (1 uM), 30 min at room temperature; run at near neutral pH (7.5), 4°C

Chain of His6-Hs.NME1^P96S (P15531 whole entry P96S): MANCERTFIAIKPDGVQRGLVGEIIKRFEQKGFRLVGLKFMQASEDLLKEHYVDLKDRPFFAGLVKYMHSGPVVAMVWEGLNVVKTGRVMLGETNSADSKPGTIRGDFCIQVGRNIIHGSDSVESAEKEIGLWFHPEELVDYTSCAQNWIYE
Chain of His6-Hs.NME1^H118F (P15531 whole entry H118F): as the sequence (P15531 whole entry P96S) above, with S96P, H118F counted along it

| Protein | stoichiometry N |
| --- | --- |
| His6-Hs.NME1^H118F (enzyme, NME1 (NM23, nucleoside diphosphate kinase), human (Hs.), H118F mutant, His tagged construct His6-Hs.NME1^H118F; Same construct as m1 with H118F (the autophosphorylation site)) not shown | 6 |
| His6-Hs.NME1^P96S (enzyme, NME1 (NM23, nucleoside diphosphate kinase), human (Hs.), P96S mutant, His tagged construct His6-Hs.NME1^P96S; Same construct as m1 with P96S (the killer of prune mutation); also called NME^P96S) not shown | 6 |
